Measured values published in the supplement of paper PMC10126150.
Sequences with one replicate were seen in a single cluster, so their values are uncertain.

System: ATP
Assay: switch fluorescence ratio, 500 uM ATP over buffer (Cy3 cluster intensity, sum of 5 cycles each) (fold (ratio)); higher = stronger signal-on switching upon ATP binding; sequences stand for … in TCGTCGGCAGCGTCAGATGTGTATAAGAGACAGTTTTTTTTTTTTTTTTTTTTTTTTT…TC
Conditions: aptamer strand: ATP DNA aptamer (quencher-CACCTGGGGGAGTATTGCGGAGGAAGG + anchor), 100 nM annealed; ATP concentration: 500 uM; one replicate
How it was run: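 The quencher-labelled ATP aptamer, at 100 nM, was annealed to Cy3-labelled switching-strand clusters on a modified Illumina MiSeq flow-cell. The clusters were imaged in selection buffer, then after 15 min with 500 uM ATP at 22 °C, and this buffer/ATP cycle ran five times with NaOH stripping and re-annealing between runs. Per-cluster fluorescence ratios, summed target-cycle over summed buffer-cycle Cy3 intensity, were averaged per switch-domain sequence. Clusters outside 100-1000 RFU were excluded.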
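Also: ATP exposure 15 min at 22 °C before imaging.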

Sequence	switch fluorescence ratio
ACCATAGTGA	1.03
TGTTGGCTGT	1.01
TACTTGTTTG	1.03
AGCTCAGCAT	1.26
GTAGAGATTA	0.997
TTCAATGTGG	0.986
GCTTACAAAT	1.01
TATCTATATG	1.03
GACTGTGTTT	1
GATTGGAGTT	1.02
TCGATTGTCT	1.02
ATAGGCTTAC	1.23
TATTATGACG	0.994
GGTTCGGACG	1.04
TCGTAACGAG	0.961
TTTCGTTAGT	0.998
CATGTGCTAC	2.82
CCCATGCACT	1.22
ATGTAAGCGA	1.02
TGACCATTAG	1.01
CTTATACAT	1.02
GTGAAGCGTT	0.989
CGTTGATC	1
GATGTCACAG	0.983
CTCGTCGACG	0.956
GAATGTGAGT	0.945

Sequence	switch fluorescence ratio
GGTCTTTATA	1.02
GAGCCAAGAG	1.09
ACTTTGGATT	0.992
TCGTGTCTAT	1.05
GGCCATGCCT	0.974
TCACTAATAA	1.02
GCAGGGAGCT	0.983
CGGAGTTTTA	1.09
ACAAGATCCG	1.04
TTCGGGACGT	1.02
TACGTAGGGA	1.06
GTAGTATGGA	0.958
GATTATCAGT	1.03
TAGGTCACGG	1.01
TCTGGCGATT	1.02
ACGACGTTGG	1.04
CATGCGGGGA	0.982
GACTTCGGCA	1.82
ACTCAAAGTG	1.41
ATTCACGGTA	1.12
GGTCAGGCTC	0.992
GGGTAATAGA	0.932
GCTAAACAGT	0.984
CTGGGCGAG	0.952
CGCACGAGGA	1.05
GATATCGTTG	1.02

Sequence	switch fluorescence ratio
CCGCGGGTCA	1.02
ATTCGCATAT	2.74
TGCCCCGTCA	0.997
GCCGCGTGTA	1.05
AAGTCAGCCA	0.973
TTGAATAAGT	1.01
GAAAAGTTAG	0.982
TTCCAGACGT	0.947
TCAATTTAGC	0.988
TCGGACTGAA	1.04
TTTTACATGC	1.03
CCCACATGAA	1.02
AGGCGAGGGT	1.02
TGGACCAACG	1.09
ACTGCGGCCT	1.05
TCGGTCCAAA	0.983
AATTCCTGCA	1.1
GGTATTGTAC	1.03
CTGTCTGTTA	1.06
TTTGATACGT	1.03
GTGCTAATCA	0.982
TTAGCTAACA	1.01
AATAGATTTA	0.977
TCAACTTATT	0.991
CGCCAATCTG	1.11
TACGGTCGGT	0.981

Sequence	switch fluorescence ratio
GTTTCTGTTG	1.01
TTATACGCCC	1.28
TTTGGATACT	1.04
GTGTCGTTAG	0.978
GATTGACCCG	0.996
ACTTTTCAGG	1.01
TCTAATATGC	1.06
CAATTTGAAC	0.963
GGGCCTAGTG	0.973
ATGTACTTAA	1.04
TACTCGGACT	1.06
CGAAACTCGA	0.971
GGCAATAGGA	1.24
ATGCTTACCA	1.07
TTATTCCGGG	1.05
ACTTAGGTGA	1.07
GTGTACTCTT	1.07
TAAATTGAGC	0.995
CCATCCTTAG	1.01
GGGCACAGCC	0.991
ATCTCCCTCA	1.1
AGCACGGCCT	1.02
ATCGCAGGTT	1.03
CGTTCTAGCA	1.04
GATCGCGATT	1.03
ACACGTGTAA	1.02

Sequence	switch fluorescence ratio
TCCGGCATAG	2.16
AAGTCATCCA	1.04
AAAAGGTTGC	0.961
ACCCTCCCGG	2.57
ATGTGGTGGG	1.1
TGATAGTTTT	1
GTGAGAGTGG	0.986
AAAAAAATCA	1.06
GTGTATTAAG	0.985
CTTTCGGAGT	1.05
GAGGCGACGG	1.02
CAACATTCAT	1.01
GAGATATCCC	1.03
TTCTAGAGCG	1.02
GATTGTCGTA	0.967
GCGGTATAGC	1.06
TATTCAGTTT	1
AGTGGACCGT	1.04
AAGTGGGGCA	1.01
GCGTATGAGC	1.01
TACGGTTTC	1.03
GAAGCTTAGG	1.03
GCTCGGCCGC	1.08
GTTTCGAGTC	0.989
TCGTTGGTGC	1.05
TGAAGACTAT	0.991

Sequence	switch fluorescence ratio
GGTATCGCGA	0.945
CCGGATCATG	1
TAATTCCATG	1.05
GCCGCTTTTT	1.1
GATGATCTGG	0.994
CTTGGCTACG	1
AGGCACGCAC	1.76
CATCTGCAG	2.94
GTAGGATAGC	1.04
GCTGATAATT	0.942
TTACTGTGCG	1
TCCTCTAAGA	1.13
GTCCGAACAG	1.11
TATAGAAAAG	1.02
TGCTAACCAT	0.989
AGGTGCGTCG	1.03
TACCTATCAC	1.48
TAGGTCTAGA	0.984
TATGTCCTTT	0.955
TAAGTAACCA	1.05
CTCGGGGTCA	0.978
TTGAATGCTT	0.984
TTAATGCCGC	1.01
